From patent publication US20230399395A1 (published 2023)

B1: HuNb66-HuNb21-Fc (antibody)
chain: EVQLQESGGGLVQPGGSLRLSCAASGYTVSSNMGWFRQAPGKEREGVAAIYPDGATYYADSVKGRFTISRDNSENTLYLQMNSLRAEDTAMYYCAADLAFNGLGTLALHGYWGQGTLVTVSSGGGGSGGGGSGGGGSGGGGSEVQLQESGGGLVQPGGSLRLSCAASGYPYSGDYCMGWFRQAPGKEREGVAAFYTGGGSTYYADSVKGRFTISRDNSKNTLYLQMNSLRAEDTAVYYCAADPWSVYGGSCGVKDPNPKAFNYWGQGTLVTVSS[gap - human IgG1 Fc]
B2: HuNb21-HuNb66-Fc (antibody)
chain: EVQLQESGGGLVQPGGSLRLSCAASGYPYSGDYCMGWFRQAPGKEREGVAAFYTGGGSTYYADSVKGRFTISRDNSKNTLYLQMNSLRAEDTAVYYCAADPWSVYGGSCGVKDPNPKAFNYWGQGTLVTVSSGGGGSGGGGSGGGGSGGGGSEVQLQESGGGLVQPGGSLRLSCAASGYTVSSNMGWFRQAPGKEREGVAAIYPDGATYYADSVKGRFTISRDNSENTLYLQMNSLRAEDTAMYYCAADLAFNGLGTLALHGYWGQGTLVTVSS[gap - human IgG1 Fc]
B3: HuNb21-HuNb21-Fc (antibody)
chain: EVQLQESGGGLVQPGGSLRLSCAASGYPYSGDYCMGWFRQAPGKEREGVAAFYTGGGSTYYADSVKGRFTISRDNSKNTLYLQMNSLRAEDTAVYYCAADPWSVYGGSCGVKDPNPKAFNYWGQGTLVTVSSGGGGSGGGGSGGGGSGGGGSEVQLQESGGGLVQPGGSLRLSCAASGYPYSGDYCMGWFRQAPGKEREGVAAFYTGGGSTYYADSVKGRFTISRDNSKNTLYLQMNSLRAEDTAVYYCAADPWSVYGGSCGVKDPNPKAFNYWGQGTLVTVSS[gap - human IgG1 Fc]
B4: HuNb66-HuNb66-Fc (antibody)
chain: EVQLQESGGGLVQPGGSLRLSCAASGYTVSSNMGWFRQAPGKEREGVAAIYPDGATYYADSVKGRFTISRDNSENTLYLQMNSLRAEDTAMYYCAADLAFNGLGTLALHGYWGQGTLVTVSSGGGGSGGGGSGGGGSGGGGSEVQLQESGGGLVQPGGSLRLSCAASGYTVSSNMGWFRQAPGKEREGVAAIYPDGATYYADSVKGRFTISRDNSENTLYLQMNSLRAEDTAMYYCAADLAFNGLGTLALHGYWGQGTLVTVSS[gap - human IgG1 Fc]

What follows are binders tested against human IL5 (human, UniProt P05113 20-134, biotinylated (IL5-biotin) in Examples 2, 5, 6, 9 and 11; site not stated) (assay: flow).
UniProt P05113, sequence (P05113 20-134): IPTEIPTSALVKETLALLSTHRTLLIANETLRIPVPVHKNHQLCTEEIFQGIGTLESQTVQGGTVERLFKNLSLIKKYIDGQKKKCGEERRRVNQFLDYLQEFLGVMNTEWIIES
In the case of B1, the IC50 is reported as 0.893 µg/mL.
In the case of B2, the IC50 is reported as 0.936 µg/mL.
B3 was tested, and the IC50 was 2.05 µg/mL.
B4 was tested, and the IC50 was 1.98 µg/mL.
